± gives the standard deviation of the averaged measurements. Restriction of a single-cycle SIVsab GFP reporter by TRIM5α v1-loop variants in CRFK cells. Human variants: read share among cells still uninfected after two challenges over input, higher = gained restriction. Rhesus variants: share among infected cells over input, higher = lost restriction. Reporter dose not given per row. No active / inactive call per row; the paper calls a change when both replicates lie above its controls (mean + 2 SD of stop or wild-type variants, or the top frameshift score). Residues outside the varied loop are taken from Swiss-Prot. The paper reads the human single-substitution scores as noise; they and the rhesus combinations repeat poorly (rank correlation 0.3 to 0.4), indel scores repeat only for the top variants, rhesus substitutions well (0.9).

The data set concerns SIVsab (simian immunodeficiency virus of sabaeus monkeys), single-cycle GFP reporter, in CRFK cells. The experiment in a line: enrichment among uninfected cells over input (fold); higher = stronger restriction. Conditions: library: insertions and deletions. How it is done: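 Pools of CRFK cells expressing variants of the TRIM5α v1 loop were challenged with the single-cycle reporter, sorted by GFP and sequenced; mean of two replicates.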
“MASGILVNVKEEVTCPICLELLTQPLSLDCGHSFCQACLTANHKKSMLDKGESSCPVCRISYQPENIRPNRHVANIVEKLREVKLSPEGQKVDHCARHGEKLLLFCQEDGKVICWLCERSQEHRGHHTFLTEEVAREYQVKLQAALEMLRQKQQEAEELEADIREEKASWKTQIQYDKTNVLADFEQLRDILDWEESNELQNLEKEEEDILKSLTNSETEMVQQTQSLRELISDLEHRLQGSVMELLQGVDGVIKRTENVTLKKPETFPKNQRRVFRAPDLKGMLEVFRELTDVRRYWVDVTVAPNNISCAVISEDKRQVSSPKPQIIYGARGTRYQTFVNFNYCCTGILGSQSITSGKHYWEVDVSKKTAWILGVCAGFQPDAMCNIEKNENYQPKYGYWVIGLEEGVKCSAFQDSSFHTPSVPFIVPLSVIICPDRVGVFLDYEACTVSFFNITNHGFLIYKFSHCSFSQPVFPYLNPRKCGVPMTLCSPSS [human TRIM5α, 1-codon duplication at 345]” gave an enrichment of 1.25 ± 0.3.
The sequence “MASGILVNVKEEVTCPICLELLTQPLSLDCGHSFCQACLTANHKKSMLDKGESSCPVCRISYQPENIRPNRHVANIVEKLREVKLSPEGQKVDHCARHGEKLLLFCQEDGKVICWLCERSQEHRGHHTFLTEEVAREYQVKLQAALEMLRQKQQEAEELEADIREEKASWKTQIQYDKTNVLADFEQLRDILDWEESNELQNLEKEEEDILKSLTNSETEMVQQTQSLRELISDLEHRLQGSVMELLQGVDGVIKRTENVTLKKPETFPKNQRRVFRAPDLKGMLEVFRELTDVRRYWVDVTVAPNNISCAVISEDKRQVSSPKPQIIYGARGTRYQTFVNFNYCFNYCTGILGSQSITSGKHYWEVDVSKKTAWILGVCAGFQPDAMCNIEKNENYQPKYGYWVIGLEEGVKCSAFQDSSFHTPSVPFIVPLSVIICPDRVGVFLDYEACTVSFFNITNHGFLIYKFSHCSFSQPVFPYLNPRKCGVPMTLCSPSS [human TRIM5α, 4-codon duplication at 342]” registered an enrichment of 1.15 ± 0.95.
With “MASGILVNVKEEVTCPICLELLTQPLSLDCGHSFCQACLTANHKKSMLDKGESSCPVCRISYQPENIRPNRHVANIVEKLREVKLSPEGQKVDHCARHGEKLLLFCQEDGKVICWLCERSQEHRGHHTFLTEEVAREYQVKLQAALEMLRQKQQEAEELEADIREEKASWKTQIQYDKTNVLADFEQLRDILDWEESNELQNLEKEEEDILKSLTNSETEMVQQTQSLRELISDLEHRLQGSVMELLQGVDGVIKRTENVTLKKPETFPKNQRRVFRAPDLKGMLEVFRELTDVRRYWVDVTVAPNNISCAVISEDKRQVSSPKPQIIYGARGTRYQTFVNFNYCFVNFNYCTGILGSQSITSGKHYWEVDVSKKTAWILGVCAGFQPDAMCNIEKNENYQPKYGYWVIGLEEGVKCSAFQDSSFHTPSVPFIVPLSVIICPDRVGVFLDYEACTVSFFNITNHGFLIYKFSHCSFSQPVFPYLNPRKCGVPMTLCSPSS [human TRIM5α, 7-codon duplication at 339]” the figure was 0.788 ± 0.21; with “MASGILVNVKEEVTCPICLELLTQPLSLDCGHSFCQACLTANHKKSMLDKGESSCPVCRISYQPENIRPNRHVANIVEKLREVKLSPEGQKVDHCARHGEKLLLFCQEDGKVICWLCERSQEHRGHHTFLTEEVAREYQVKLQAALEMLRQKQQEAEELEADIREEKASWKTQIQYDKTNVLADFEQLRDILDWEESNELQNLEKEEEDILKSLTNSETEMVQQTQSLRELISDLEHRLQGSVMELLQGVDGVIKRTENVTLKKPETFPKNQRRVFRAPDLKGMLEVFRELTDVRRYWVDVTVAPNNISCAVISEDKRQVSSPKPQIIYGARGTRYQTFVNFNYCNFNYCTGILGSQSITSGKHYWEVDVSKKTAWILGVCAGFQPDAMCNIEKNENYQPKYGYWVIGLEEGVKCSAFQDSSFHTPSVPFIVPLSVIICPDRVGVFLDYEACTVSFFNITNHGFLIYKFSHCSFSQPVFPYLNPRKCGVPMTLCSPSS [human TRIM5α, 5-codon duplication at 341]”, 2.13 ± 2.4; with “MASGILVNVKEEVTCPICLELLTQPLSLDCGHSFCQACLTANHKKSMLDKGESSCPVCRISYQPENIRPNRHVANIVEKLREVKLSPEGQKVDHCARHGEKLLLFCQEDGKVICWLCERSQEHRGHHTFLTEEVAREYQVKLQAALEMLRQKQQEAEELEADIREEKASWKTQIQYDKTNVLADFEQLRDILDWEESNELQNLEKEEEDILKSLTNSETEMVQQTQSLRELISDLEHRLQGSVMELLQGVDGVIKRTENVTLKKPETFPKNQRRVFRAPDLKGMLEVFRELTDVRRYWVDVTVAPNNISCAVISEDKRQVSSPKPQIIYGARGTRYQTFVNFNYCNYCTGILGSQSITSGKHYWEVDVSKKTAWILGVCAGFQPDAMCNIEKNENYQPKYGYWVIGLEEGVKCSAFQDSSFHTPSVPFIVPLSVIICPDRVGVFLDYEACTVSFFNITNHGFLIYKFSHCSFSQPVFPYLNPRKCGVPMTLCSPSS [human TRIM5α, 3-codon duplication at 343]”, 0.222 ± 0.16.
In the case of “MASGILVNVKEEVTCPICLELLTQPLSLDCGHSFCQACLTANHKKSMLDKGESSCPVCRISYQPENIRPNRHVANIVEKLREVKLSPEGQKVDHCARHGEKLLLFCQEDGKVICWLCERSQEHRGHHTFLTEEVAREYQVKLQAALEMLRQKQQEAEELEADIREEKASWKTQIQYDKTNVLADFEQLRDILDWEESNELQNLEKEEEDILKSLTNSETEMVQQTQSLRELISDLEHRLQGSVMELLQGVDGVIKRTENVTLKKPETFPKNQRRVFRAPDLKGMLEVFRELTDVRRYWVDVTVAPNNISCAVISEDKRQVSSPKPQIIYGARGTRYQTFVNFNYCQTFVNFNYCTGILGSQSITSGKHYWEVDVSKKTAWILGVCAGFQPDAMCNIEKNENYQPKYGYWVIGLEEGVKCSAFQDSSFHTPSVPFIVPLSVIICPDRVGVFLDYEACTVSFFNITNHGFLIYKFSHCSFSQPVFPYLNPRKCGVPMTLCSPSS [human TRIM5α, 9-codon duplication at 337]”, the enrichment was 1.76 ± 1.9.
The value for “MASGILVNVKEEVTCPICLELLTQPLSLDCGHSFCQACLTANHKKSMLDKGESSCPVCRISYQPENIRPNRHVANIVEKLREVKLSPEGQKVDHCARHGEKLLLFCQEDGKVICWLCERSQEHRGHHTFLTEEVAREYQVKLQAALEMLRQKQQEAEELEADIREEKASWKTQIQYDKTNVLADFEQLRDILDWEESNELQNLEKEEEDILKSLTNSETEMVQQTQSLRELISDLEHRLQGSVMELLQGVDGVIKRTENVTLKKPETFPKNQRRVFRAPDLKGMLEVFRELTDVRRYWVDVTVAPNNISCAVISEDKRQVSSPKPQIIYGARGTRYQTFVNFNYCTCTGILGSQSITSGKHYWEVDVSKKTAWILGVCAGFQPDAMCNIEKNENYQPKYGYWVIGLEEGVKCSAFQDSSFHTPSVPFIVPLSVIICPDRVGVFLDYEACTVSFFNITNHGFLIYKFSHCSFSQPVFPYLNPRKCGVPMTLCSPSS [human TRIM5α, 2-codon duplication at 345]” was 0.548 ± 0.25.
The value for “MASGILVNVKEEVTCPICLELLTQPLSLDCGHSFCQACLTANHKKSMLDKGESSCPVCRISYQPENIRPNRHVANIVEKLREVKLSPEGQKVDHCARHGEKLLLFCQEDGKVICWLCERSQEHRGHHTFLTEEVAREYQVKLQAALEMLRQKQQEAEELEADIREEKASWKTQIQYDKTNVLADFEQLRDILDWEESNELQNLEKEEEDILKSLTNSETEMVQQTQSLRELISDLEHRLQGSVMELLQGVDGVIKRTENVTLKKPETFPKNQRRVFRAPDLKGMLEVFRELTDVRRYWVDVTVAPNNISCAVISEDKRQVSSPKPQIIYGARGTRYQTFVNFNYCTFNYCTGILGSQSITSGKHYWEVDVSKKTAWILGVCAGFQPDAMCNIEKNENYQPKYGYWVIGLEEGVKCSAFQDSSFHTPSVPFIVPLSVIICPDRVGVFLDYEACTVSFFNITNHGFLIYKFSHCSFSQPVFPYLNPRKCGVPMTLCSPSS [human TRIM5α, 5-codon duplication at 342]” was 0.287 ± 0.049.
Sequence “MASGILVNVKEEVTCPICLELLTQPLSLDCGHSFCQACLTANHKKSMLDKGESSCPVCRISYQPENIRPNRHVANIVEKLREVKLSPEGQKVDHCARHGEKLLLFCQEDGKVICWLCERSQEHRGHHTFLTEEVAREYQVKLQAALEMLRQKQQEAEELEADIREEKASWKTQIQYDKTNVLADFEQLRDILDWEESNELQNLEKEEEDILKSLTNSETEMVQQTQSLRELISDLEHRLQGSVMELLQGVDGVIKRTENVTLKKPETFPKNQRRVFRAPDLKGMLEVFRELTDVRRYWVDVTVAPNNISCAVISEDKRQVSSPKPQIIYGARGTRYQTFVNFNYCTFVNFNYCTGILGSQSITSGKHYWEVDVSKKTAWILGVCAGFQPDAMCNIEKNENYQPKYGYWVIGLEEGVKCSAFQDSSFHTPSVPFIVPLSVIICPDRVGVFLDYEACTVSFFNITNHGFLIYKFSHCSFSQPVFPYLNPRKCGVPMTLCSPSS [human TRIM5α, 8-codon duplication at 338]” yielded an enrichment of 0.564 ± 0.28.
With “MASGILVNVKEEVTCPICLELLTQPLSLDCGHSFCQACLTANHKKSMLDKGESSCPVCRISYQPENIRPNRHVANIVEKLREVKLSPEGQKVDHCARHGEKLLLFCQEDGKVICWLCERSQEHRGHHTFLTEEVAREYQVKLQAALEMLRQKQQEAEELEADIREEKASWKTQIQYDKTNVLADFEQLRDILDWEESNELQNLEKEEEDILKSLTNSETEMVQQTQSLRELISDLEHRLQGSVMELLQGVDGVIKRTENVTLKKPETFPKNQRRVFRAPDLKGMLEVFRELTDVRRYWVDVTVAPNNISCAVISEDKRQVSSPKPQIIYGARGTRYQTFVNFNYCTFVNFNYCTGILGSQSITSGKHYWEVDVSKKTAWILGVCAGFQPDAMCNIEKNENYQPKYGYWVIGLEEGVKCSAFQDSSFHTPSVPFIVPLSVIICPDRVGVFLDYEACTVSFFNITNHGFLIYKFSHCSFSQPVFPYLNPRKCGVPMTLCSPSS [human TRIM5α, 8-codon duplication at 339]” the figure was 0.231 ± 0.0092.
With “MASGILVNVKEEVTCPICLELLTQPLSLDCGHSFCQACLTANHKKSMLDKGESSCPVCRISYQPENIRPNRHVANIVEKLREVKLSPEGQKVDHCARHGEKLLLFCQEDGKVICWLCERSQEHRGHHTFLTEEVAREYQVKLQAALEMLRQKQQEAEELEADIREEKASWKTQIQYDKTNVLADFEQLRDILDWEESNELQNLEKEEEDILKSLTNSETEMVQQTQSLRELISDLEHRLQGSVMELLQGVDGVIKRTENVTLKKPETFPKNQRRVFRAPDLKGMLEVFRELTDVRRYWVDVTVAPNNISCAVISEDKRQVSSPKPQIIYGARGTRYQTFVNFNYCTGCTGILGSQSITSGKHYWEVDVSKKTAWILGVCAGFQPDAMCNIEKNENYQPKYGYWVIGLEEGVKCSAFQDSSFHTPSVPFIVPLSVIICPDRVGVFLDYEACTVSFFNITNHGFLIYKFSHCSFSQPVFPYLNPRKCGVPMTLCSPSS [human TRIM5α, 3-codon duplication at 345]”, the enrichment was 0.764 ± 0.13.

The values are drawn from the supplement of paper PMC12230231.
